# The other results are listed elsewhere or left out.
# T1: UNK ZnF1-3 (human, UniProt Q9C0B0 31-174)
# T1 sequence: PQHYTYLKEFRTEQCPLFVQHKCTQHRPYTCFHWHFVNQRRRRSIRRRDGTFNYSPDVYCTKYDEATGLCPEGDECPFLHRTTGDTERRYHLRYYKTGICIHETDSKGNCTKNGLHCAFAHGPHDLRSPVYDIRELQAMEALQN
# B1: chr6:51416999:51417000:-_ENSMUSG00000004980_ENSMUST00000090002|mus_mus|FALSE|FALSE (ssRNA)
# RNA: GGGAGUUCUACAGUCCGACGAUCAUCAAUGGAAUGGGGCCUUGCAGCCAUGGCAGCGUCAACCUCGGCCAUGGAUGAGAAAGUUACAAAGCCAAAUCCUCUUGAUCUUUUGCUUGCAGGAUCCCGCAUAACCACACAGUCUGUCAACAGAGGAUUGAGCAUCA
# B2: chr11:102221366:102221367:+_ENSG00000110330_ENST00000227758|hu_hu|FALSE|FALSE (ssRNA)
# RNA: GGGAGUUCUACAGUCCGACGAUCCCAGUACAUAAAUGUUCUCAUUCGAGCUGCAUGUGUCUGCAUGCUCAGAUUUGAAAUGCUAAACCUCAGAGUUUCUAGAGAAUUUUCCAAAAAUGGACAGUUGGGAAAAUGCCUCCGGUGCAACAGAGGAUUGAGCAUCA
# B3: chr3:176767854:176767855:-_ENSG00000177565_ENST00000430069|hu_hu|hu_hu_hu_mus_False|8_88 (ssRNA)
# RNA: GGGAGUUCUACAGUCCGACGAUCGACAUCCUUGUUACUGGGCACGUCUUGCCCUCCUUCCCGUAUGCAGUGUCUAAGCACGAGCUGCGUAGGGCCACUCGUGCUGUUCUCACUGAGGUUCCAGAUUCUUGCUGUUGAGUCUCCCAACAGAGGAUUGAGCAUCA
# B4: chr1:52766434:52766435:-_ENSMUSG00000041439_ENSMUST00000156876|mus_hu|motif|central (ssRNA)
# RNA: GGGAGUUCUACAGUCCGACGAUCGACCUUGGAAAUUAGAAGAUCGUUGUUUAUCUUAACACAAUGUUUCUCUAUCCAGUCGGUUUCCUCCUCAGGAAUAGCAGAUGUUUCUGUGGAGGAAGGUGUUUCAUUCGAAGGUGGUUCCAACAGAGGAUUGAGCAUCA
# B5: chr18:34792849:34792850:-_ENSMUSG00000024370_ENSMUST00000133181|mus_mus|motif|central (ssRNA)
# RNA: GGGAGUUCUACAGUCCGACGAUCGAUCUAUAGCACCUACUGCACAAGCUCAUUGUAGCAGACAUCAAGUGGCUCUGAAACCGGGAAAAACACAGUGAAUUCUUCAACCUUGUAGAUAAGGUUGAAAACCAAAUUGGAGACUUUCAACAGAGGAUUGAGCAUCA
# B6: chr11:46405157:46405158:+_ENSG00000110492_ENST00000395566|hu_hu|hu_hu_hu_mus_False|1_108 (ssRNA)
# RNA: GGGAGUUCUACAGUCCGACGAUCCCCUUAGGGGUGGGGGCACUUGGUGUGGGCGUGAGAGGACAGGCGUGAUUGACAGAGCUGACAGGAAGACAAAAGGCACUGGUGGGUUAUAUCUUGGGCCUGUGGGAGAGGAGGCGUGGGCAACAGAGGAUUGAGCAUCA
# B7: chr6:38652254:38652255:-_ENSG00000124767_ENST00000373365|hu_hu|hu_hu_hu_mus_False|18_48 (ssRNA)
# RNA: GGGAGUUCUACAGUCCGACGAUCCGAGAACUUCAUAGCAGGGAAGUCAAGCUUCUGCAGGAGGGUCAGUCCAAGAACCCUCGUAUAAAAAUCCAGUGACUUCUUAGGAUCCUUAAUUCGUAGCAUGGUUUGCUGCAGUAGAAACAACAGAGGAUUGAGCAUCA
# B8: chr14:66974463:66974464:+_ENSMUSG00000022044_ENSMUST00000074523|mus_hu|mus_mus_mus_hu_False|88_108 (ssRNA)
# RNA: GGGAGUUCUACAGUCCGACGAUCUUGUAGGAUGAUUUAUUCAGGGGAUCAGACAAGAAGCAGGAGCAGAACAAGGACACCAGCGGGAGCUCCUUCAUCUUCUCUUUGUAGGCAGCAAGGGUCAUGUUUCUGGGAUCUGGUGGCCAACAGAGGAUUGAGCAUCA
# B9: chr11:20101544:20101545:+_ENSMUSG00000020149_ENSMUST00000020358|mus_mus|motif|central (ssRNA)
# RNA: GGGAGUUCUACAGUCCGACGAUCUGACGCAGCCGCCGCCCCAACUCUCCGCGCCACAGGUAAUGGAAAGGGAGGAAUGAGCGGAGCUGUUCCGGUAGAGCAAACGUCGACCCCACUCCGACCCUUAGAACACAAUCAGCAGCCCAACAGAGGAUUGAGCAUCA
# B10: chr2:115689334:115689335:-_ENSMUSG00000027210_ENSMUST00000074285|mus_mus|FALSE|FALSE (ssRNA)
# RNA: GGGAGUUCUACAGUCCGACGAUCGCUCUUUGAAGAACAGUCCCCCAAAAUCAUAAUAAGAAUUGGCUUAUGAAGCACAAACUAUAAAGAUCUGUUUGAAACUAAAGGACACAUGGACGGGGGGAACAAAGGCCGGGCAUGAAACAACAGAGGAUUGAGCAUCA
# B11: chr13:22070289:22070290:-_ENSG00000165487_ENST00000382374|hu_hu|motif|central (ssRNA)
# RNA: GGGAGUUCUACAGUCCGACGAUCAGCAAAGUCUUCCAAGUGGGUUGUAAAAUGGCAAAAUGACUUGAAUUCAUCCAAACGGAUGCUCUCUCCUGCUGACAACUUCUCUCUCACAUUUUUCCAAUAAAUAUCUUUAUUUUCAGUCAACAGAGGAUUGAGCAUCA
# B12: 10258623_10260999_921_CDS_ENSG00000150753_ENST00000503026|human|control|control (ssRNA)
# RNA: GGGAGUUCUACAGUCCGACGAUCGCGAACCGCAGGCAAGUUGUUCUGAAGAAGUAAGUGAUUUGCUUCAUCAUCAAAGCCCCACUGACAAAUUGCUAGGUUAGCACCAGUCUCUUUAAUUUGUUGAAUCAUCUCUUCAAAUUUCAACAGAGGAUUGAGCAUCA
# B13: chr1:224612315:224612316:-_ENSG00000162923_ENST00000295024|hu_hu|motif|central (ssRNA)
# RNA: GGGAGUUCUACAGUCCGACGAUCCGUCAAUUCACAGCGUAGAACUUGAAGUGCCUCCAGGACCUUGCCAUCCUCCAGGUAUUCGGGGUACUUCUGCUGCAGCAGCAAAAACUUCAUCCUCACAAUUAUUCCCAACAACGUUUGCAACAGAGGAUUGAGCAUCA
# B14: chr9:53370893:53370894:+_ENSMUSG00000033054_ENSMUST00000035850|mus_mus|motif|central (ssRNA)
# RNA: GGGAGUUCUACAGUCCGACGAUCCGCUGCAUCAUUAGAGAGCUGUUUAUCUGAAGGGGCUGGUUCUUCAAGAUGAAUUUCGGUUUUCUCAGUCACAUUUACACCCAAACUUUCACCAAUCCCAGGAGGUGGUUUGCUCUGCAGCAACAGAGGAUUGAGCAUCA
# B15: chr12:8716970:8716971:+_ENSMUSG00000020594_ENSMUST00000111122|mus_mus|FALSE|FALSE (ssRNA)
# RNA: GGGAGUUCUACAGUCCGACGAUCUGGAGAAGCCUUGCCUUUUUGAUCUCCUUUCUCAGGUCCAUCUGUUUCAGCAUCUCUAGUACCAAAAGUUCCCUUCCUAAAUCGAGAAUCCAAUUUAUCAGCAGGAGAGGAACUUAAUACCAACAGAGGAUUGAGCAUCA
# B16: 118652278_118652398_1266_3pUTR_ENSMUSG00000020114_ENSMUST00000020315|mouse|control|control (ssRNA)
# RNA: GGGAGUUCUACAGUCCGACGAUCCGUCAGCAUCCAUAGCAUUCUCAUCUUCAUCUUCAUCAUCGUAAUUGUAAUUUGGAUCAUAGGUAAGGUAUUUUAGACAAAUGUUUAUAAUGGUAGAAACAUGAGGAUAAACUUCUUUAGCAACAGAGGAUUGAGCAUCA
# B17: chr3:53254358:53254359:-_ENSMUSG00000042997_ENSMUST00000130348|mus_mus|motif|central (ssRNA)
# RNA: GGGAGUUCUACAGUCCGACGAUCCAGAAGUCAAAAUCCCAGCACAGAGCAGGGAGGGGCUCAUGAAGCCUACCACGAACGGAGAAGCUACUGGAGGUAGCUGUGGGGGACCUUUCCUAAAAGGUGACCCUGCUUCGAGGAGUGCAACAGAGGAUUGAGCAUCA
# B18: chr1:53517203:53517204:+_ENSG00000116171_ENST00000408941|hu_hu|motif|central (ssRNA)
# RNA: GGGAGUUCUACAGUCCGACGAUCAGAAAAAGUUAUUUUAAUUUUCUAUUAAACAUUCUUCUCAAAGCAUUAUUUUAUCCGGUAUCUCACUGAAUUUUAAGAAAUAACAUUAGUAUUAGAAAAACUAGGAAAAAAGAUAAAUGCCAACAGAGGAUUGAGCAUCA
# B19: chr11:22897662:22897663:+_ENSMUSG00000007739_ENSMUST00000173867|mus_mus|motif|central (ssRNA)
# RNA: GGGAGUUCUACAGUCCGACGAUCGCAAAACUGAAUAAGCCCAAUCUUAGCCUUUUCAACUCUUGUUAUGCCAGAAUUUGCGGCUUUCUGUGUGAGAACGAGGCCUUCCACCAGCUCACAGUCAUCUAUUGUCCCACCAAGCUUCAACAGAGGAUUGAGCAUCA
# B20: chr18:9859796:9859797:+_ENSG00000168461_ENST00000578921|hu_hu|motif|central (ssRNA)
# RNA: GGGAGUUCUACAGUCCGACGAUCCAUUGACACUUCUCUGAUUUCCUCCAAAAAGUAAUAAAUAAAGGCUUACUUCCAAAGCGGGCGGAAAACUAACCUCCUGAACUAAAUUUGCCUUUCAGUGAAGGUUGGUUAGGUAACAAACAACAGAGGAUUGAGCAUCA
# B21: 80643647_80643767_1968_CDS_ENSMUSG00000034994_ENSMUST00000047864|mouse|control|control (ssRNA)
# RNA: GGGAGUUCUACAGUCCGACGAUCAGCAACGUCCCACUCAUACUUUUCGGCCAGGUAGCGGGCACGUGCCUUGAGCUCCUGGCGGGCAGACACCUCACCCUUAUCGAUGUCCUCUGCCAGGCCAUCAGGGAAGGGCCUGGCCUUCAACAGAGGAUUGAGCAUCA
# B22: chr4:43015417:43015418:-_ENSMUSG00000028453_ENSMUST00000030165|mus_mus|FALSE|FALSE (ssRNA)
# RNA: GGGAGUUCUACAGUCCGACGAUCAAAGGGUAGGAAUGGGGAUUUUUAUGAGGAACUGCAGUUUAGUCCCCAGAAUCCAACCUACCAAAAAGACAAUGGGAAGGAAGGGGGAGUUAGGGAGACAGGGAAGGCAGACAGAAGACGCAACAGAGGAUUGAGCAUCA
# Molecular target: T1, UNK ZnF1-3
# Assay: nsRBNS (natural sequence RNA bind-n-seq); RBNS binding buffer (assumed for nsRBNS): 25 mM Tris pH 7.5, 150 mM KCl, 3 mM MgCl2, 0.01% Triton X-100, 500 ug/ml BSA, 20 U/ml SUPERase-In, 4 C; UNK is unkempt and MSI1 is Musashi-1; names of the RNAs are library labels; protein concentration not given here; high values mean tight binding
row,Binder,binding signal [enrichment R]
1,B1,0.857
2,B2,0.712
3,B3,0.388
4,B4,0.446
5,B5,1.87
6,B6,2.91
7,B7,0.685
8,B8,2.29
9,B9,1.56
10,B10,2.13
11,B11,1.95
12,B12,1.01
13,B13,0.8
14,B14,0.999
15,B15,0.913
16,B16,1.05
17,B17,1.17
18,B18,1.35
19,B19,0.868
20,B20,1.32
21,B21,0.561
22,B22,1.43
